The text below walks through data of doi:10.1101/810531 (bioRxiv, 2019).

The target of the experiment is SNARE domain of syntaxin 1a (aa 180-262) (Rattus norvegicus, UniProt P32851 fragment). Put plainly: native gel or EMSA.
UniProt P32851, sequence (P32851 180-262): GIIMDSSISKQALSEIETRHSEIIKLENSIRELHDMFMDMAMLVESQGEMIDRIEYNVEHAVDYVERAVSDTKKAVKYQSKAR

B1: first helix of SNAP-25 ([…]) (domain or fragment)
chain: not shown
For the molecule B1, the binding result is recorded as “binds”.
